Measured values from the supplement of paper PMC10369915.
The other results are listed elsewhere or left out. No stated cut-off is given here; in the data, active = 3.2 or more and inactive = the rest. Only a few entries rise above the background.

B1: RBMX_Y190 (peptide)
chain: RGRDSYGGPPR
B2: RECQL_Y492 (peptide)
chain: KNITEYCRDLI
B3: RECQL_Y492_D495H (peptide)
chain: KNITEYCRHLI
B4: RECQL_Y492_K487T (peptide)
chain: TNITEYCRDLI
B5: RECQL4_Y353_R355Q (peptide)
chain: HDRGNYVQLNM
B6: RECQL5_Y478 (peptide)
chain: GGRKGYGDFSR
B7: RECQL5_Y478_D480G (peptide)
chain: GGRKGYGGFSR
B8: RECQL5_Y484 (peptide)
chain: GDFSRYDEGSG
B9: REEP3_Y170 (peptide)
chain: VGQRPYQPLPE
B10: REEP3_Y170_Q171R (peptide)
chain: VGQRPYRPLPE
B11: REPS2_Y462 (peptide)
chain: PRSRSYSSTSI
B12: REPS2_Y462_S463F (peptide)
chain: PRSRSYFSTSI
B13: RERE_Y1259 (peptide)
chain: RTLSEYARPHV
B14: RET_Y1062 (peptide)
chain: IENKLYGMSDP
B15: RET_Y1062_M1064T (peptide)
chain: IENKLYGTSDP
B16: RET_Y752_R749T (peptide)
chain: KGTAGYTTVAV
B17: RET_Y791 (peptide)
chain: HVIKLYGACSQ
B18: RET_Y791_L790F (peptide)
chain: HVIKFYGACSQ
B19: RET_Y791_Y791F (peptide)
chain: HVIKLFGACSQ

target: SHP2 C-SH2 domain E139D; experiment: enrichment score (SH2-bound / input frequency) (ratio); bacterial display of known human phosphotyrosine sites (pTyr-Var adds point mutants) read by sequencing; higher = stronger binding; tyrosines were phosphorylated by kinases first; details: peptide library: pTyr-Var
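Further: displayed peptides selected on beads carrying the immobilized SH2 domain, with library peptides lacking any tyrosine serving as negative controls.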

Enrichment score, inactive:
B1 0.316
B2 1.21
B3 0.991
B4 1.3
B5 1.04
B6 0.629
B7 0.291
B8 0.483
B9 0.699
B10 0.916
B11 0.805
B12 0.566
B13 0.961
B14 2.82
B15 0.658
B16 0.696
B17 0.663
B18 1.11
B19 0.89

target: SHP2 C-SH2 domain wild-type; experiment: as above; details: peptide library: pTyr-Var

Enrichment score, inactive:
B1 0.281
B2 1.43
B3 1.07
B4 1.35
B5 1.38
B6 0.55
B7 0.27
B8 0.474
B9 0.67
B10 0.743
B11 0.249
B12 0.377
B13 0.862
B14 0.903
B15 0.682
B16 1.07
B17 1.01
B18 1.01
B19 0.876

target: SHP2 N-SH2 domain L43F; experiment: as above; details: peptide library: pTyr-Var

Enrichment score, inactive:
B1 0.342
B2 1.31
B3 0.995
B4 1.18
B5 1.97
B6 0.558
B7 0.367
B8 0.401
B9 0.685
B10 0.868
B11 0.137
B12 0.443
B13 0.87
B14 0.802
B15 0.785
B16 0.871
B17 0.911
B18 0.77
B19 0.647

target: SHP2 N-SH2 domain T42A; experiment: as above; details: peptide library: pTyr-Var

Enrichment score, inactive:
B1 0.427
B2 1.12
B3 0.834
B4 1.18
B6 0.609
B7 0.405
B8 0.44
B9 0.598
B10 0.579
B11 0.299
B12 0.478
B13 0.939
B14 0.836
B15 0.612
B16 1.73
B17 0.752
B18 0.937
B19 0.823

Enrichment score, active:
B5 4.75

target: SHP2 N-SH2 domain T52S; experiment: as above; details: peptide library: pTyr-Var

Enrichment score, inactive:
B1 0.315
B2 1.27
B3 1.03
B4 1.21
B5 2.26
B6 0.683
B7 0.383
B8 0.556
B9 0.617
B10 0.715
B11 0.218
B12 0.565
B13 0.757
B14 0.816
B15 0.772
B16 1.07
B17 0.785
B18 0.869
B19 0.797

target: SHP2 N-SH2 domain wild-type; experiment: as above; details: peptide library: pTyr-Var

Enrichment score, inactive:
B1 0.31
B2 1.1
B3 1.11
B4 1.61
B5 1.3
B6 0.75
B7 0.337
B8 0.621
B9 0.764
B10 0.815
B11 0.258
B12 0.507
B13 1.09
B14 0.95
B15 0.651
B16 0.807
B17 0.905
B18 1.08
B19 0.93
